Data: PubChem BioAssay AID651820 (National Center for Advancing Translational Sciences (NCATS), 2012)
Where “and” joins values, the source holds several entries; their conditions need not be identical. Identical values can stand only once. The whole screen tested about 340,000 compounds, of which about 12,000 (3.5%) were called active. Inconclusive means that the source gave no clear call. Such entries were picked first, then a sample of the others. Calls come from the whole dose curve; as a rule, active = well fitted inhibition curve with a large enough effect; inconclusive = small, poorly fitted or top-dose-only effect, or another doubt; inactive = no such curve, though single readings can be large or run the other way. A potency beside an inconclusive call is a rough fit, not a confirmed value.
% is set by controls: 0 for no effect and ±100 for the full control effect; potency is the fitted concentration of half-maximal effect; tags give direction and shape of the fitted curve.

Assay: qHTS Assay for Inhibitors of Hepatitis C Virus (HCV)
Details: Huh7.5.1 HCVcc-Cre (HCVcc is cell-culture hepatitis C virus) infection, luciferase reporter, 44 h; activity change, negative = inhibition: at 41.8 µM (top of the series) unless noted
In short: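 Seed cells (1,000/well) for 4 h; treat with compound and infect with HCVcc-Cre, moi about 0.5. Incubate 44 h, then detect luciferase activity.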
For `CN(C)c1ccc(-c2ccc3c(=O)c4ccccc4n(C)c3c2)cn1`, the Potency was inconclusive: 3.98 µM [inhibitor, single point].
For `O=[N+]([O-])c1ccc(N=NNc2ccccc2)cc1`, the “activity change, negative = inhibition” value was inactive: -1.77%.
In the case of `Cc1ccc2c(C)nc(Nc3nc(CSc4nnc(C)s4)cc(=O)[nH]3)nc2c1`, the Potency is reported as inconclusive: 15.8 µM [inhibitor, single point].
In the case of `COc1ccc(OC)c(S(=O)(=O)Nc2ccc(-c3ccc4nnc(C)n4n3)cc2)c1`, the Potency is reported as inconclusive: 25.1 µM [inhibitor, single point].
For `COc1cc(Nc2nc3c(N)cc(C(F)(F)F)cc3nc2-c2ccccc2)cc(OC)c1OC`, the Potency was inconclusive: 11.2 µM [inhibitor, partial curve].
With `COc1ccc(C(C[N+](=O)[O-])c2c(-c3ccccc3)cc3ccccn23)cc1OC` (centres undefined) the “activity change, negative = inhibition” value was inactive: -22.5%.
With `CCN1CCN(C(=O)c2ccccc2N(Cc2ccccc2)S(=O)(=O)c2ccc(OC)cc2)CC1` the Potency was inconclusive: 31.6 µM [inhibitor, single point].
With `COc1ccc(C(=O)Nc2ccccc2C(N)=O)cc1` the “activity change, negative = inhibition” value was inactive: 9.46%.
For `COc1ccc(NC(=O)c2cccnc2)c([N+](=O)[O-])c1`, the Potency was inconclusive: 14.1 µM [inhibitor, single point].
With `CCOc1ccc(CCNC(=O)COC(=O)c2ccc(OC(C)C)cc2)cc1OCC` the Potency was inconclusive: 0.501 µM [inhibitor, full curve, poor fit].
For `O=C(Nc1ncc(Cc2ccc(Cl)cc2Cl)s1)c1ccc([N+](=O)[O-])cc1`, the Potency was inconclusive: 11.2 µM [inhibitor, single point].
With `Cc1cc(N2C(=O)C3C4CCC(C4)C3C2=O)no1` (centres undefined) the “activity change, negative = inhibition” value was inactive: 5.89%.
In the case of `Cc1cc2c(cc1C)NC(CC(=O)NCc1ccccc1)C(=O)N2` (centres undefined), the Potency is reported as inconclusive: 31.6 µM [inhibitor, single point].
For `COc1ccc(/C=N\NS(=O)(=O)c2ccc(C)cc2)cc1COc1ccccc1[N+](=O)[O-]`, the Potency was inconclusive: 15.8 µM [inhibitor, partial curve].
For `Cc1ccc(C2=N/C(=C\c3ccc(F)cc3)C(=O)N2)cc1`, the “activity change, negative = inhibition” value was inactive: -5.62%.
In the case of `CS(=O)(=O)N(CC(=O)Nc1ccccc1Sc1ccccc1)c1cccc(Br)c1`, the Potency is reported as inconclusive: 10 µM [inhibitor, single point].
With `COc1ccc(S(=O)(=O)N2CCOCC2)cc1C(=O)NCc1c(C)nn(Cc2ccccc2)c1C` the Potency was inconclusive: 14.1 µM [inhibitor, single point].
In the case of `Cc1cccc(NC(=O)Nc2ccc(Oc3c(F)c(F)c(F)c(F)c3F)cc2)c1`, the “activity change, negative = inhibition” value is reported as inactive: 28.9%.
For `CCOC(=O)c1c(C)oc2ccc(OCC(=O)N(CC)CC)cc12`, the Potency was inconclusive: 14.1 µM [inhibitor, single point].
For `COc1ccc(NC(=O)Nc2cccc(Cl)c2Cl)c(OC)n1`, the Potency was active: 2.82 µM.
In the case of `Cc1nn2c3c(cnc2c1-c1ccccc1)C(=O)CC(c1ccccc1)C3` (centres undefined), the Potency is reported as inconclusive: 8.91 µM [inhibitor, partial curve].
In the case of `COc1ccc(CCC(=O)NNC(=O)Nc2ccccc2Cl)cc1`, the “activity change, negative = inhibition” value is reported as inactive: 9.62%.
With `Cc1ccc(-n2c(-c3ccncc3)n[nH]c2=S)c(C)c1` the “activity change, negative = inhibition” value was inactive: 17.2%.
With `Cc1cc(C2=NNC(=NC3CC3)SC2)c(C)n1Cc1ccco1` the Potency was inconclusive: 2.82 µM [inhibitor, full curve].
In the case of `O=C(COC(=O)c1cc2ccccc2o1)c1ccccc1`, the “activity change, negative = inhibition” value is reported as inactive: 10.3%.
With `CC1CN(C(=O)/C(C#N)=C2\N=C(NC(=O)c3ccc(F)cc3)c3ccccc32)CC(C)O1` (centres undefined) the Potency was inconclusive: 5.62 µM [inhibitor, single point].
For `CCCCNC(=O)c1nn2cc(Br)cnc2c1Br`, the “activity change, negative = inhibition” value was inactive: -7.03%.
With `O=[N+]([O-])c1cccc2c([As](=O)(O)O)cccc12` the Potency was inconclusive: 12.6 µM [inhibitor, partial curve].
With `Cc1ccc(C(=O)c2c(C)oc3c2C(=O)C(=O)c2ccccc2-3)cc1` the Potency was active: 7.08 µM.
For `Ic1ccc(N2CCN(Cc3c[nH]c4ncccc34)CC2)cc1`, the Potency was inconclusive: 0.501 µM [inhibitor, full curve, poor fit].
In the case of `CC(C)Oc1ccc(C(=O)Nc2nc3ccccc3[nH]2)cc1`, the Potency is reported as inconclusive: 10 µM [inhibitor, partial curve].
For `CSc1ccc(CCNC(=O)c2cc(-c3ccccc3)c(N3CCOCC3)s2)cc1`, the Potency was inconclusive: 8.91 µM [inhibitor, partial curve].
In the case of `CNC(=O)c1cc(C(=O)c2ccc(F)cc2C(F)(F)F)c[nH]1`, the “activity change, negative = inhibition” value is reported as inactive: -24.3%.
In the case of `CCn1c(SCc2ccc(C#N)cc2)nnc1-c1cccc(Cl)c1`, the Potency is reported as inconclusive: 31.6 µM [inhibitor, single point].
For `O=C1CN(c2nc(-c3cccs3)nc3sc4c(c23)CCCC4)CCN1`, the Potency was active: 5.62 µM.
With `CCOc1ccccc1CNC(=O)c1ccc(NC(=O)C2=C(C)OCCS2)cc1` the Potency was inconclusive: 20 µM [inhibitor, partial curve].
For `O=C(NCc1nc2ccccc2[nH]1)C1=C[C@@H](c2csc3ccccc23)C[C@@H](OCc2ccc(CO)cc2)O1`, the activity change, negative = inhibition was inactive: 6.08% [at 8.37 µM].
For `Cc1cc(C)c(S(=O)(=O)N2CCN(c3ccc([N+](=O)[O-])c(NCc4ccco4)c3)CC2)c(C)c1`, the Potency was inconclusive: 15.8 µM [inhibitor, single point].
For `CCC(=O)Nc1cc(C(C)(C)C)ccc1C(C)=O`, the Potency was active: 10 µM.
For `O=C(NCc1ccccc1)C1=C[C@H](c2coc3ccccc3c2=O)C[C@H](OCc2ccc(CO)cc2)O1`, the Potency was inconclusive: 31.6 µM [inhibitor, single point].
With `NS(=O)(=O)c1ccc(CCNCC(=O)NC2CC2)cc1` the “activity change, negative = inhibition” value was inactive: 14.4%.
In the case of `O=C1CN(C(=O)COC(=O)c2ccccc2NC(=O)c2ccco2)c2ccccc2N1`, the Potency is reported as “inactive”.
In the case of `O=C(/C=C/c1ccc(N2CCCCC2)c([N+](=O)[O-])c1)c1ccc(O)cc1`, the Potency is reported as inconclusive: 11.2 µM [inhibitor, partial curve].
With `Oc1ccccc1-c1nc(N2CCCC2)c2ccccc2n1` the Potency was inconclusive: 3.16 µM [inhibitor, full curve].
For `CCCn1cnc2c(SCc3ccc(Cl)cc3)nc(N)nc21`, the Potency was inconclusive: 31.6 µM [inhibitor, single point].
In the case of `COc1nc(OC)nc(Oc2ccc(Cl)cc2[N+](=O)[O-])n1`, the Potency is reported as inconclusive: 5.01 µM [inhibitor, single point].
For `COCc1cc(=O)[nH]c(SCCS(=O)(=O)c2ccc(C)cc2)n1`, the “activity change, negative = inhibition” value was inactive: 11.9%.
With `Nc1cc(S(=O)(=O)Nc2ccc(Cl)cc2)ccc1N1CCOCC1` the Potency was inconclusive: 5.62 µM [inhibitor, full curve].
In the case of `COC(=O)C(NC(C)=O)(Nc1nc2ccc(S(C)(=O)=O)cc2s1)C(F)(F)F` (centres undefined), the Potency is reported as “inactive and inconclusive: 10 µM [inhibitor, single point]”.
In the case of `CC1CCN(c2nc3ccc(C(=O)NCCCN4CCCCC4C)cc3s2)CC1` (centres undefined), the Potency is reported as inconclusive: 31.6 µM [inhibitor, single point].
For `COc1ccc(S(=O)(=O)N2CCC(C(=O)c3ccc4c(c3)OCCO4)CC2)cc1`, the Potency was inconclusive: 35.5 µM [inhibitor, partial curve].
For `O=C1CCC(C(=O)OCc2cc(=O)oc3ccc4ccccc4c23)=NN1`, the “activity change, negative = inhibition” value was inactive: -3.97%.
For `Cc1ccc(CNC(=O)c2ccc(S(=O)(=O)Nc3c(C)n(C)n(-c4ccccc4)c3=O)cc2)cc1`, the Potency was inconclusive: 11.2 µM [inhibitor, single point].
For `COc1ccc(S(=O)(=O)N2CCCCC2)cc1NC(=O)CNc1ccccc1C(C)=O`, the Potency was inconclusive: 22.4 µM [inhibitor, single point].
With `COc1ccc(CCn2c(Br)nc3c2c(=O)[nH]c(=O)n3C)cc1` the “activity change, negative = inhibition” value was inactive: -11.6%.
For `CC(C)(CO)CNC1CCCN(C2Cc3ccccc3C2)C1` (centres undefined), the “activity change, negative = inhibition” value was inactive: -3.44%.
For `Cc1ccc(OCCN(C)C(=O)C2CCC(=O)N(CCCN3CCOCC3)C2)cc1` (centres undefined), the Potency was inconclusive: 31.6 µM [inhibitor, single point].
For `O=C(Cn1cc([N+](=O)[O-])cn1)Nc1nc2ccccc2s1`, the “activity change, negative = inhibition” value was inactive: -22.8%.
With `Cc1ccc(OCC(=O)Nc2ccc(S(=O)(=O)Nc3onc(C)c3C)cc2)cc1` the “activity change, negative = inhibition” value was inactive: 15%.
In the case of `COCC(C)n1c(SCc2nc3ccccc3c(=O)[nH]2)nc2ccccc2c1=O` (centres undefined), the Potency is reported as inconclusive: 3.16 µM [inhibitor, single point].
For `CCCOc1cccc(C(=O)Nc2cccnc2)c1`, the “activity change, negative = inhibition” value was inactive: -21.8%.
With `Cc1ccc(Cn2c(=N)c(C(=O)NCCN3CCOCC3)cc3c(=O)n4ccccc4nc32)cc1` the Potency was inconclusive: 10 µM [inhibitor, partial curve].
In the case of `O=C(CCCn1c(SCC(=O)c2ccc(O)c(O)c2)nc2ccccc2c1=O)NCC1CCCO1` (centres undefined), the Potency is reported as inconclusive: 31.6 µM [inhibitor, single point].
In the case of `CN1C/C(=C/c2cccnc2)C(=O)/C(=C/c2cccnc2)C1`, the Potency is reported as inconclusive: 10 µM [inhibitor, single point].
For `O=C(Nc1ccccc1N1CCCC1)c1ccc([N+](=O)[O-])o1`, the Potency was inconclusive: 14.1 µM [inhibitor, partial curve].
For `CCN(CC)S(=O)(=O)c1cccc(C(=O)N/N=C(\C)c2ccc(O)cc2O)c1`, the Potency was active: 8.91 µM.
In the case of `COc1cc([C@@H]2Oc3cc(C4Oc5cc(O)cc(O)c5C(=O)[C@H]4O)ccc3O[C@H]2CO)ccc1O` (some centres undefined), the Potency is reported as “inactive and inconclusive: 8.91 µM [inhibitor, partial curve]”.
For `COC(=O)c1ccsc1NC(=O)CN1CCN(Cc2ccc3c(c2)OCO3)CC1`, the Potency was inconclusive: 15.8 µM [inhibitor, single point].
With `CCc1ccc(-n2c(SCc3cc(=O)n4cc(Br)ccc4n3)nc3[nH]ncc3c2=O)cc1` the Potency was active: 10 µM.
